Test results taken from the supplement of paper PMC8728848.
The list shows a part of the results.

What was measured:
Assay in all cases: glycan array binding signal (z-score within array); higher = stronger binding
Conditions in all cases: glycan notation: IUPAC condensed, linker removed
[1] = molecular target: Neu5Ac(a2-8)Neu5Gc(a2-3)Gal(b1-4)GlcNAc
Procedure, shortened: (§1)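 Glycan array data were curated from 3228 arrays in the Consortium for Functional Glycomics database and kept only where the protein sequence was available. Glycan names were converted to IUPAC-condensed notation, and columns mapping to the same glycan were averaged. The binding signal is a within-array Z-score, averaged across arrays of the same protein sequence at different concentrations or buffers and across linkers. Negative Z-scores can be read as non-binding.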

[2] = molecular target: Neu5Ac(b2-6)Gal(b1-4)GlcNAc
Procedure, shortened: as §1

Neu5Ac(b2-6)GalNAc = molecular target: Neu5Ac(b2-6)GalNAc
Procedure, shortened: as §1

[3] = molecular target: Neu5Ac9Ac(a2-3)Gal(b1-3)GlcNAc
Procedure, shortened: as §1

[4] = molecular target: Neu5Ac9Ac(a2-3)Gal(b1-4)GlcNAc
Procedure, shortened: as §1

[5] = molecular target: Neu5Ac9Ac(a2-6)Gal(b1-4)GlcNAc
Procedure, shortened: as §1

[6] = molecular target: Neu5Gc(a2-3)Gal(b1-3)GlcNAc
Procedure, shortened: as §1

[7] = molecular target: Neu5Gc(a2-3)Gal(b1-3)[Fuc(a1-4)]GlcNAc
Procedure, shortened: as §1

Neu5Gc(a2-3)Gal(b1-4)Glc = molecular target: Neu5Gc(a2-3)Gal(b1-4)Glc
Procedure, shortened: as §1

[8] = molecular target: Neu5Gc(a2-3)Gal(b1-4)GlcNAc
Procedure, shortened: as §1

[9] = molecular target: Neu5Gc(a2-3)Gal(b1-4)GlcNAc(b1-3)Gal(b1-4)GlcNAc(b1-2)Man(a1-3)[Neu5Gc(a2-3)Gal(b1-4)GlcNAc(b1-3)Gal(b1-4)GlcNAc(b1-2)Man(a1-6)]Man(b1-4)GlcNAc(b1-4)GlcNAc
Procedure, shortened: as §1

[10] = molecular target: Neu5Gc(a2-3)Gal(b1-4)[Fuc(a1-3)]GlcNAc
Procedure, shortened: as §1

[11] = molecular target: Neu5Gc(a2-3)Gal(b1-4)[Fuc(a1-4)]GlcNAc
Procedure, shortened: as §1

[12] = molecular target: Neu5Gc(a2-6)Gal(b1-4)GlcNAc
Procedure, shortened: as §1

Neu5Gc(a2-6)GalNAc = molecular target: Neu5Gc(a2-6)GalNAc
Procedure, shortened: as §1

[13] = molecular target: Neu5Gc(a2-8)Neu5Ac(a2-3)Gal(b1-4)GlcNAc
Procedure, shortened: as §1

[14] = molecular target: Neu5Gc(a2-8)Neu5Gc(a2-3)Gal(b1-4)GlcNAc
Procedure, shortened: as §1

[15] = molecular target: Neu5Gc(a2-8)Neu5Gc(a2-3)Gal(b1-4)GlcNAc(b1-3)Gal(b1-4)GlcNAc
Procedure, shortened: as §1

[16] = molecular target: Neu5Gc(a2-8)Neu5Gc(a2-6)Gal(b1-4)GlcNAc
Procedure, shortened: as §1

[17] = molecular target: Neu5Gc(b2-6)Gal(b1-4)GlcNAc
Procedure, shortened: as §1

B1: Epa1-NP (Candida glabrata), Q6VBJ0 (protein)
chain: MILNPALFLNKCVCIYTTLILLLLTNGGYATSSNDISLASKDPTTFPLGCSPDITTPKKGLSMELYSYDFRKKGSYPCWDAAYLDPNYPRTGYKSHRLLAKVDGVTGNINFYYHATKGCTPQLGHLPASYNYPKPLTMTNFTMLLYGYFRPKVTGFHTFTISADDLLFVNFGAGNAFDCCRRDSSADHFGNYQAYAIWGSKTAKDELTVHLDAGVYYPIRLFYNNREYDGALSFTFKTESNENTVSDFSEYFFSLDDTEEGCPGLISYDSSCASVKTSKIIGIDYHTETPNENLVPITKTIYHLGIPCTGTTTTPLCGSGFYDPLANKCVTINTSSTSSVTKTTSHTTSKEVSFHSSISSQKTLIPKSIPSPYGPIKSQSIPTEMETSSEISSSEYAFSDVISTPSHSPYTKKHSSLNSSSYTSTVIHSLTSYSISQGIFSTSLSEQNITSKSSTDKFSTATSMSNNITQSSIIISQFSTNNENYTTTSMHTSSDKISTETLNNSISTTTSILFSNSSTILKNNTTIISSDKDTHYHPVNPTIVCSTNKTEIICASITQPSISNSNNHWSSSVLKFNSTTVRSTLPSSAGSNETSINVPFSSSTESNTSTSSTSTSNSKMVRSTLPSSAGSNETSISVPFSSSTESNTSTSSTSTSNSKMVRSTLPSSAGSNETSINVPFSSSTESNTSTSSTSTSNSKTVRSTPFSSAGIIMTSLSQRNNKSASSYASSNSKCYNTADSCRKVHSTPSYLLTSSYTSEGVDYDCSLVSTKLKINDTNCVNNKHTTKSCLKTSVTTTIPTLEIKTARKSSSNTIGLHSYPTSSPNKSISSAPIIGYISSFKTIKTASPSYQTSDLTTITTITSLNNPGSTAVENTHESNDKSRKTSSNDISSKHSVIKETKDAVESSNKSHQTNTLKCSSIIIASSSHNSYESLGGTTLTLTLSKVYSPQNNDTLPFLEISEVNPSRTVLPESSKMMQYLTSTEERNKTARNTIATNIVSISTFHFEGEGNAIRMGYTQLLLMLIGIIVMNIGT
- glycan array binding signal (z-score) [1]: -0.293
- glycan array binding signal (z-score) [2]: -0.275
- glycan array binding signal (z-score) (Neu5Ac(b2-6)GalNAc): -0.287
- glycan array binding signal (z-score) [3]: -0.281
- glycan array binding signal (z-score) [4]: -0.307
- glycan array binding signal (z-score) [5]: -0.309
- glycan array binding signal (z-score) [6]: -0.348
- glycan array binding signal (z-score) [7]: -0.321
- glycan array binding signal (z-score) (Neu5Gc(a2-3)Gal(b1-4)Glc): -0.308
- glycan array binding signal (z-score) [8]: -0.317
- glycan array binding signal (z-score) [9]: -0.287
- glycan array binding signal (z-score) [10]: -0.262
- glycan array binding signal (z-score) [11]: -0.553
- glycan array binding signal (z-score) [12]: -0.326
- glycan array binding signal (z-score) (Neu5Gc(a2-6)GalNAc): -0.328
- glycan array binding signal (z-score) [13]: -0.286
- glycan array binding signal (z-score) [14]: -0.286
- glycan array binding signal (z-score) [15]: -0.289
- glycan array binding signal (z-score) [16]: -0.286
- glycan array binding signal (z-score) [17]: -0.255
